# Measurements from the supplement of paper PMC8728848.
# This is one part of the list.
# Columns and labels:
# Assay in all cases: glycan array binding signal (z-score within array); higher = stronger binding
# Details in all cases: glycan notation: IUPAC condensed, linker removed; mutation: H59Q
# [1] = target: GlcNAc(b1-3)Gal(b1-3)GalNAc
# In short: (§1)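 Glycan array data were curated from 3228 arrays in the Consortium for Functional Glycomics database and kept only where the protein sequence was available. Glycan names were converted to IUPAC-condensed notation, and columns mapping to the same glycan were averaged. The binding signal is a within-array Z-score, averaged across arrays of the same protein sequence at different concentrations or buffers and across linkers. Negative Z-scores can be read as non-binding.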
# [2] = target: GlcNAc(b1-3)Gal(b1-4)Glc
# In short: as §1
# [3] = target: GlcNAc(b1-3)Gal(b1-4)GlcNAc
# In short: as §1
# [4] = target: GlcNAc(b1-3)Gal(b1-4)GlcNAc(b1-2)Man(a1-3)[GlcNAc(b1-3)Gal(b1-4)GlcNAc(b1-2)Man(a1-6)]Man(b1-4)GlcNAc(b1-4)GlcNAc
# In short: as §1
# [5] = target: GlcNAc(b1-3)Gal(b1-4)GlcNAc(b1-2)Man(a1-3)[GlcNAc(b1-3)Gal(b1-4)GlcNAc(b1-2)Man(a1-6)]Man(b1-4)GlcNAc(b1-4)[Fuc(a1-6)]GlcNAc
# In short: as §1
# [6] = target: GlcNAc(b1-3)Gal(b1-4)GlcNAc(b1-2)[GlcNAc(b1-3)Gal(b1-4)GlcNAc(b1-6)]Man(a1-6)[GlcNAc(b1-3)Gal(b1-4)GlcNAc(b1-2)Man(a1-3)]Man(b1-4)GlcNAc(b1-4)GlcNAc
# In short: as §1
# [7] = target: GlcNAc(b1-3)Gal(b1-4)GlcNAc(b1-3)Gal(b1-4)GlcNAc
# In short: as §1
# [8] = target: GlcNAc(b1-3)Gal(b1-4)GlcNAc(b1-3)Gal(b1-4)GlcNAc(b1-2)Man(a1-3)[GlcNAc(b1-3)Gal(b1-4)GlcNAc(b1-3)Gal(b1-4)GlcNAc(b1-2)Man(a1-6)]Man(b1-4)GlcNAc(b1-4)GlcNAc
# In short: as §1
# [9] = target: GlcNAc(b1-3)Gal(b1-4)GlcNAc(b1-3)Gal(b1-4)GlcNAc(b1-2)Man(a1-3)[GlcNAc(b1-3)Gal(b1-4)GlcNAc(b1-3)Gal(b1-4)GlcNAc(b1-2)Man(a1-6)]Man(b1-4)GlcNAc(b1-4)[Fuc(a1-6)]GlcNAc
# In short: as §1
# [10] = target: GlcNAc(b1-3)Gal(b1-4)GlcNAc(b1-3)Gal(b1-4)GlcNAc(b1-2)[GlcNAc(b1-3)Gal(b1-4)GlcNAc(b1-3)Gal(b1-4)GlcNAc(b1-6)]Man(a1-6)[GlcNAc(b1-3)Gal(b1-4)GlcNAc(b1-3)Gal(b1-4)GlcNAc(b1-2)Man(a1-3)]Man(b1-4)GlcNAc(b1-4)[Fuc(a1-6)]GlcNAc
# In short: as §1
# [11] = target: GlcNAc(b1-3)Gal(b1-4)GlcNAc(b1-3)Gal(b1-4)GlcNAc(b1-3)Gal(b1-4)GlcNAc(b1-2)Man(a1-3)[GlcNAc(b1-3)Gal(b1-4)GlcNAc(b1-3)Gal(b1-4)GlcNAc(b1-3)Gal(b1-4)GlcNAc(b1-2)Man(a1-6)]Man(b1-4)GlcNAc(b1-4)GlcNAc
# In short: as §1
# [12] = target: GlcNAc(b1-3)Gal(b1-4)GlcNAc(b1-3)Gal(b1-4)GlcNAc(b1-3)Gal(b1-4)GlcNAc(b1-2)Man(a1-3)[GlcNAc(b1-3)Gal(b1-4)GlcNAc(b1-3)Gal(b1-4)GlcNAc(b1-3)Gal(b1-4)GlcNAc(b1-2)Man(a1-6)]Man(b1-4)GlcNAc(b1-4)[Fuc(a1-6)]GlcNAc
# In short: as §1
# [13] = target: GlcNAc(b1-3)Gal(b1-4)GlcNAc(b1-3)Gal(b1-4)GlcNAc(b1-3)Gal(b1-4)GlcNAc(b1-2)[GlcNAc(b1-3)Gal(b1-4)GlcNAc(b1-3)Gal(b1-4)GlcNAc(b1-3)Gal(b1-4)GlcNAc(b1-6)]Man(a1-6)[GlcNAc(b1-3)Gal(b1-4)GlcNAc(b1-3)Gal(b1-4)GlcNAc(b1-3)Gal(b1-4)GlcNAc(b1-2)Man(a1-3)]Man(b1-4)GlcNAc(b1-4)[Fuc(a1-6)]GlcNAc
# In short: as §1
# [14] = target: GlcNAc(b1-3)Gal(b1-4)GlcNAc(b1-3)Gal(b1-4)GlcNAc(b1-3)Gal(b1-4)GlcNAc(b1-3)Gal(b1-4)GlcNAc(b1-2)Man(a1-3)[GlcNAc(b1-3)Gal(b1-4)GlcNAc(b1-3)Gal(b1-4)GlcNAc(b1-3)Gal(b1-4)GlcNAc(b1-3)Gal(b1-4)GlcNAc(b1-2)Man(a1-6)]Man(b1-4)GlcNAc(b1-4)GlcNAc
# In short: as §1
# [15] = target: GlcNAc(b1-3)Gal(b1-4)GlcNAc(b1-3)Gal(b1-4)GlcNAc(b1-3)Gal(b1-4)GlcNAc(b1-3)Gal(b1-4)GlcNAc(b1-2)Man(a1-3)[GlcNAc(b1-3)Gal(b1-4)GlcNAc(b1-3)Gal(b1-4)GlcNAc(b1-3)Gal(b1-4)GlcNAc(b1-3)Gal(b1-4)GlcNAc(b1-2)Man(a1-6)]Man(b1-4)GlcNAc(b1-4)[Fuc(a1-6)]GlcNAc
# In short: as §1
# [16] = target: GlcNAc(b1-3)Gal(b1-4)GlcNAc(b1-3)Gal(b1-4)GlcNAc(b1-3)Gal(b1-4)GlcNAc(b1-3)Gal(b1-4)GlcNAc(b1-2)[GlcNAc(b1-3)Gal(b1-4)GlcNAc(b1-3)Gal(b1-4)GlcNAc(b1-3)Gal(b1-4)GlcNAc(b1-3)Gal(b1-4)GlcNAc(b1-6)]Man(a1-6)[GlcNAc(b1-3)Gal(b1-4)GlcNAc(b1-3)Gal(b1-4)GlcNAc(b1-3)Gal(b1-4)GlcNAc(b1-3)Gal(b1-4)GlcNAc(b1-2)Man(a1-3)]Man(b1-4)GlcNAc(b1-4)[Fuc(a1-6)]GlcNAc
# In short: as §1
# [17] = target: GlcNAc(b1-3)Gal(b1-4)GlcNAc(b1-3)Gal(b1-4)GlcNAc(b1-3)GalNAc
# In short: as §1
# [18] = target: GlcNAc(b1-3)Gal(b1-4)GlcNAc(b1-3)GalNAc
# In short: as §1
# [19] = target: GlcNAc(b1-3)Gal(b1-4)GlcNAc(b1-3)[GlcNAc(b1-3)Gal(b1-4)GlcNAc(b1-3)]GalNAc
# In short: as §1
# [20] = target: GlcNAc(b1-3)Gal(b1-4)GlcNAc(b1-6)[Gal(b1-3)]GalNAc
# In short: as §1
# [21] = target: GlcNAc(b1-3)Gal(b1-4)GlcNAc(b1-6)[GlcNAc(b1-3)Gal(b1-3)]GalNAc
# In short: as §1
# [22] = target: GlcNAc(b1-3)Gal(b1-4)GlcNAc(b1-6)[GlcNAc(b1-3)]Gal(b1-4)GlcNAc
# In short: as §1
# [23] = target: GlcNAc(b1-3)GalNAc
# In short: as §1
# [24] = target: GlcNAc(b1-3)Man
# In short: as §1
# [25] = target: GlcNAc(b1-3)[GlcNAc(b1-4)][GlcNAc(b1-6)]GlcNAc
# In short: as §1
# [26] = target: GlcNAc(b1-3)[GlcNAc(b1-6)]Gal(b1-4)GlcNAc
# In short: as §1
# [27] = target: GlcNAc(b1-3)[GlcNAc(b1-6)]GalNAc
# In short: as §1
# [28] = target: GlcNAc(b1-4)Gal(b1-4)GlcNAc
# In short: as §1
# [29] = target: GlcNAc(b1-4)GlcNAc
# In short: as §1
# [30] = target: GlcNAc(b1-4)GlcNAc(b1-4)GlcNAc
# In short: as §1
# [31] = target: GlcNAc(b1-4)GlcNAc(b1-4)GlcNAc(b1-4)GlcNAc(b1-4)GlcNAc
# In short: as §1
# [32] = target: GlcNAc(b1-4)GlcNAc(b1-4)GlcNAc(b1-4)GlcNAc(b1-4)GlcNAc(b1-4)GlcNAc
# In short: as §1
# [33] = target: GlcNAc(b1-4)[GlcNAc(b1-6)]GalNAc
# In short: as §1
# [34] = target: GlcNAc(b1-6)Gal(b1-4)GlcNAc
# In short: as §1
# [35] = target: GlcNAc(b1-6)GalNAc
# In short: as §1
# [36] = target: GlcNAc6S(b1-3)Gal(b1-4)GlcNAc
# In short: as §1
# [37] = target: Kdn(a2-3)Gal(b1-3)GalNAc
# In short: as §1
# [38] = target: Kdn(a2-3)Gal(b1-3)GlcNAc
# In short: as §1
# [39] = target: Kdn(a2-3)Gal(b1-4)Glc
# In short: as §1
# [40] = target: Kdn(a2-3)Gal(b1-4)GlcNAc
# In short: as §1
# [41] = target: Kdn(a2-3)Gal(b1-4)[Fuc(a1-3)]GlcNAc
# In short: as §1
# [42] = target: Kdn(a2-6)Gal(b1-4)GlcNAc
# In short: as §1
# [43] = target: Man(a1-2)Man(a1-2)Man(a1-3)Man
# In short: as §1
# [44] = target: Man(a1-2)Man(a1-2)Man(a1-6)[Man(a1-3)]Man
# In short: as §1
# [45] = target: Man(a1-2)Man(a1-3)Man
# In short: as §1
binder,measurement,setting,value
"rAAL-H59Q (Agrocybe aegerita), Q6WY08 (protein) MQGVNIYNISAGTSVDLAAPVTTGDIVTFFSSALNLNAGAGNPNNTTLNLFAENGAYLLQIAFRLQENVIIFNSRQPDGPWLVEQRVSDVANQFAGIDGKAMVTVFDHGDKYQVVINEKTVIQYTKQISGLTLSLSYNATEETSIFSTVVEAVTYTGLALEHHHHHH",glycan array binding signal (z-score),[1],-0.049
same,glycan array binding signal (z-score),[2],-0.126
same,glycan array binding signal (z-score),[3],-0.062
same,glycan array binding signal (z-score),[4],-0.1
same,glycan array binding signal (z-score),[5],-0.041
same,glycan array binding signal (z-score),[6],-0.042
same,glycan array binding signal (z-score),[7],-0.092
same,glycan array binding signal (z-score),[8],-0.053
same,glycan array binding signal (z-score),[9],-0.02
same,glycan array binding signal (z-score),[10],0.095
same,glycan array binding signal (z-score),[11],-0.073
same,glycan array binding signal (z-score),[12],-0.038
same,glycan array binding signal (z-score),[13],0.063
same,glycan array binding signal (z-score),[14],-0.002
same,glycan array binding signal (z-score),[15],0.057
same,glycan array binding signal (z-score),[16],-0.037
same,glycan array binding signal (z-score),[17],-0.108
same,glycan array binding signal (z-score),[18],-0.03
same,glycan array binding signal (z-score),[19],-0.022
same,glycan array binding signal (z-score),[20],-0.03
same,glycan array binding signal (z-score),[21],-0.104
same,glycan array binding signal (z-score),[22],-0.13
same,glycan array binding signal (z-score),[23],-0.079
same,glycan array binding signal (z-score),[24],-0.073
same,glycan array binding signal (z-score),[25],-0.026
same,glycan array binding signal (z-score),[26],-0.118
same,glycan array binding signal (z-score),[27],-0.097
same,glycan array binding signal (z-score),[28],-0.087
same,glycan array binding signal (z-score),[29],-0.07
same,glycan array binding signal (z-score),[30],-0.083
same,glycan array binding signal (z-score),[31],-0.142
same,glycan array binding signal (z-score),[32],-0.137
same,glycan array binding signal (z-score),[33],-0.123
same,glycan array binding signal (z-score),[34],-0.096
same,glycan array binding signal (z-score),[35],-0.032
same,glycan array binding signal (z-score),[36],-0.037
same,glycan array binding signal (z-score),[37],-0.089
same,glycan array binding signal (z-score),[38],-0.087
same,glycan array binding signal (z-score),[39],-0.124
same,glycan array binding signal (z-score),[40],-0.098
same,glycan array binding signal (z-score),[41],-0.051
same,glycan array binding signal (z-score),[42],-0.023
same,glycan array binding signal (z-score),[43],-0.136
same,glycan array binding signal (z-score),[44],-0.06
same,glycan array binding signal (z-score),[45],-0.14
